Test results: patent publication US10590397B2 (priority 2017, dated 2020)
Changes are numbered by the printed parent chain. Names may count otherwise.

B1: Os79 H122A/L123G (protein, listed as Oryza sativa)
chain: MGSMSTPAASANGGQVLLLPFPAAQGHTNPMLQFGRRLAYHGLRPTLVTTRYVLSTTPPPGDPFRVAAISDGFDDASGMAALPDPGEYLRTLEAHGARTLAELLLSEARAGRPARVLVYDPAGPWARRVARAAGVATAAFLSQPCAVDLIYGEVCARRLALPVTPTDARGLYARGVLGVELGPDDVPPFVAAPELTPAFCEQSIEQFAGLEDDDDVLVNSFSDLEPKEAAYMESTWRAKTIGPSLPSFYLDDGRLRSNTAYGFNLFRSTVPCMEWLDKQPPRSVVLVSYGTVSTFDVAKLEELGNGLCNSGKPFLWVVRSNEEHKLSVQLRKKCEKRGLIVPFCPQLEVLAHKATGCFLSHCGWNSTLEAIVNGVPLVAMPHWADQPTISKYVESLWGMGVRVQLDKSGILQREEVERCIREVMDGDRKEDYRRNATRLMKKAKESMQEGGSSDKNIAEFAAKYSN
B2: Os79 H122A/L123A (protein, listed as Oryza sativa)
chain: B1 chain with G123A

Conditions: expressed in E. coli

| Molecule | solubility of the protein |
| --- | --- |
| B1 | largely insoluble |
| B2 | improved the solubility |
